Source: the supplement of paper PMC12217912
The other results are listed elsewhere or left out. The full chains were built here from the parent and the listed change. Values near 0.05 are background.

B1: TEV protease; numbered along this chain (parent)
chain: MGESLFKGPRDYNPISSSICHLTNESDGHTTSLYGIGFGPFIITNKHLFRRNNGTLVVQSLHGVFKVKDTTTLQQHLVDGRDMIIIRMPKDFPPFPQKLKFREPQREERICLVTTNFQTKSMSSMVSDTSCTFPSGDGIFWKHWIQTKDGQCGSPLVSTRDGFIVGIHSASNFTNTNNYFTSVPKNFMELLTNQEAQQWVSGWRLNADSVLWGGHKVFMVKPEEPFQPVKEATQL

Variants of: B1
Assay: raw area under fraction-flipped curve 0-4 h after induction (AUC4h, not background-subtracted), DNA-recorder readout of cleavage of the substrate (dimensionless); higher = more cleavage of the substrate by the protease variant
Conditions: temperature: 34 °C; time window: 0-4 h after rhamnose induction
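Also: Bxb1 expression induced with 0.2% (w/v) L-rhamnose at OD600 near 0.5, cultures sampled hourly, flipped fraction per protease–substrate barcode pair counted by paired-end Illumina sequencing.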

Row | Variant | area with substrate ENLYDQS | area with substrate ENLYEQS | area with substrate ENLYHQS | area with substrate ENLYIQS | area with substrate ENLYNQS | area with substrate ENLYPQS | area with substrate ENLYSQS | area with substrate ENLYWQS | area with substrate ENLYGQS | area with substrate ENLYVQS
1 | L205D | 0.082 | 0.0609 | 0.0516 | 0.0753 | 0.0656 | 0.0484 | 0.0572 | 0.0215 |  | 
2 | Y34W |  |  | 0.0725 |  |  |  |  |  |  | 
3 | Y34K |  | 0.048 | 0.0657 |  | 0.044 | 0.0054 |  |  | 0.0591 | 0.105
4 | S171T |  | 0.0544 | 0.102 |  |  |  | 0.0564 | 0.101 |  | 
5 | T115P |  |  | 0.0751 |  | 0.0594 | 0.0695 |  |  |  | 0.112
6 | D149H |  | 0.0537 | 0.0575 | 0.0784 |  | 0.067 | 0.0596 | 0.0494 | 0.0443 | 0.0735
7 | K100A |  | 0.0768 | 0.0657 |  |  |  |  | 0.0827 | 0.063 | 
8 | S182L |  | 0.0532 | 0.0505 |  | 0.0493 | 0.031 |  | 0.0496 |  | 0.0646
9 | V57D |  | 0.051 | 0.0611 | 0.12 | 0.0671 | 0.0619 | 0.0773 |  | 0.0535 | 
10 | E107F |  | 0.0684 | 0.0676 |  | 0.0676 | 0.0777 |  |  |  | 0.0877
11 | T159A |  | 0.0593 |  | 0.116 |  | 0.0556 |  |  |  | 0.121
12 | N175W |  |  |  |  | 0.0578 | 0.054 | 0.0595 |  |  | 
13 | G138D |  | 0.0616 | 0.0633 | 0.0963 |  | 0.0667 |  | 0.0546 | 0.0625 | 0.111
14 | F218Y |  | 0.0711 | 0.0778 | 0.127 |  | 0.0434 |  |  |  | 0.125
15 | G153W |  | 0.0655 | 0.0484 |  | 0.039 |  | 0.0665 | 0.0629 |  | 
16 | G153E |  | 0.0464 | 0.045 | 0.0457 | 0.046 | 0.0512 | 0.0582 |  | 0.0573 | 0.034
17 | P228D |  |  | 0.0545 |  |  |  |  | 0.0782 | 0.0636 | 0.128
18 | P228A |  | 0.0466 | 0.0492 | 0.122 |  |  |  | 0.0776 |  | 0.181
19 | A196T |  |  | 0.0673 | 0.12 | 0.0684 |  | 0.0773 | 0.0633 | 0.0654 | 0.135
20 | P93Y |  |  | 0.0651 |  |  | 0.0789 |  | 0.0688 | 0.0809 | 

Row | Variant | area with substrate ENLYDQS | area with substrate ENLYEQS | area with substrate ENLYHQS | area with substrate ENLYIQS | area with substrate ENLYNQS | area with substrate ENLYPQS | area with substrate ENLYSQS | area with substrate ENLYWQS | area with substrate ENLYGQS | area with substrate ENLYVQS
21 | P93F |  |  | 0.0661 |  | 0.0618 | 0.0583 | 0.0694 |  | 0.0506 | 
22 | P93N |  | 0.0477 | 0.0712 |  | 0.0662 |  |  |  |  | 
23 | P93R |  |  | 0.0707 |  |  |  |  | 0.0948 |  | 0.106
24 | P93Q |  | 0.0608 | 0.066 | 0.159 | 0.0747 |  |  | 0.0746 |  | 
25 | C131Y |  |  |  | 0.185 |  |  | 0.0752 |  |  | 
26 | C131R |  | 0.0607 | 0.079 | 0.0987 |  |  |  | 0.0716 |  | 0.1
27 | H143I |  | 0.0454 | 0.0649 |  |  |  |  |  | 0.0277 | 
28 | M219H |  | 0.0743 | 0.0666 | 0.0672 | 0.0563 | 0.0527 |  | 0.104 | 0.0624 | 0.0717
29 | K7E |  |  | 0.0822 |  |  | 0.0523 |  | 0.0825 |  | 
30 | F117W |  |  | 0.0692 |  | 0.0528 |  | 0.0741 |  |  | 
31 | R50F |  | 0.0544 | 0.0661 | 0.123 | 0.0631 | 0.103 | 0.0816 |  | 0.0632 | 0.161
32 | Q59A |  | 0.0705 | 0.068 |  | 0.0786 | 0.0729 | 0.0843 | 0.0907 |  | 
33 | Q59T |  | 0.0697 | 0.0761 | 0.12 |  | 0.0707 | 0.0619 | 0.082 |  | 
34 | Q197P |  | 0.0694 | 0.0912 |  |  |  |  | 0.0801 | 0.0591 | 0.105
35 | F6K |  | 0.0782 |  |  |  |  |  |  |  | 
36 | T70Y | 0.0542 | 0.0562 | 0.0603 | 0.0927 | 0.0668 | 0.0263 | 0.0712 |  | 0.0574 | 0.0777
37 | G213Q |  | 0.076 |  |  |  | 0.0611 |  |  |  | 
38 | G213N |  | 0.0751 | 0.0648 |  | 0.0606 |  |  |  |  | 
39 | V58Q |  |  |  |  |  |  |  |  |  | 0.0335
40 | V58T |  |  |  |  | 0.0663 | 0.0487 |  |  | 0.018 | 0.0634

Same assay, conditions: temperature: 34 °C; time window: 0-4 h after rhamnose induction

Row | Variant | area with substrate ENLYMQS | area with substrate ENLYLQS | area with substrate ENLYQQS | area with substrate ENLYTQS | area with substrate ENLYYQS | area with substrate ENLYKQS | area with substrate ENLYRQS
41 | S171T | 0.0941 |  |  |  |  |  | 
42 | T115P | 0.0889 | 0.08 | 0.0778 | 0.0756 | 0.0649 |  | 
43 | D149H | 0.0509 |  |  |  |  | 0.0542 | 0.0575
44 | K100A | 0.0975 |  |  |  | 0.0618 | 0.0556 | 
45 | S182L | 0.0461 |  |  |  | 0.0507 | 0.0527 | 0.0479
46 | V57D | 0.105 |  | 0.0675 | 0.0605 | 0.0625 | 0.0611 | 0.0554
47 | E107F | 0.0694 | 0.0875 |  |  | 0.0639 | 0.0537 | 0.0748
48 | T159A |  | 0.0437 |  |  |  |  | 0.0592
49 | N175W |  |  | 0.0538 |  |  | 0.0895 | 0.0582
50 | G138D |  |  | 0.0667 |  |  | 0.0139 | 
51 | F218Y |  |  |  |  | 0.0646 |  | 
52 | G153W |  |  |  |  | 0.0645 |  | 
53 | P228D | 0.0916 |  |  |  |  |  | 0.082
54 | P228A |  |  | 0.0221 |  |  | 0.0605 | 
55 | A196T |  |  | 0.0469 |  | 0.0497 | 0.0654 | 0.0616
56 | P93Y |  |  |  |  | 0.0673 | 0.0686 | 0.0576
57 | P93F | 0.0738 |  |  |  | 0.0399 |  | 0.049

Row | Variant | area with substrate ENLYMQS | area with substrate ENLYLQS | area with substrate ENLYQQS | area with substrate ENLYTQS | area with substrate ENLYYQS | area with substrate ENLYKQS | area with substrate ENLYRQS
58 | P93N |  |  |  |  |  | 0.0516 | 
59 | P93R | 0.0556 | 0.069 | 0.0673 | 0.0753 |  |  | 
60 | P93Q |  | 0.0789 |  |  |  |  | 
61 | C131Y | 0.063 |  |  |  |  |  | 0.0708
62 | C131R | 0.0778 | 0.082 |  |  |  |  | 
63 | H143I |  |  |  |  | 0.0646 | 0.0553 | 0.0622
64 | M219H | 0.0807 |  |  |  |  |  | 0.0607
65 | K7E | 0.0834 |  |  |  |  | 0.0671 | 0.0661
66 | F117W | 0.09 |  | 0.0636 |  |  | 0.0438 | 
67 | R50F |  |  |  |  | 0.0966 | 0.0271 | 
68 | Q59A |  |  |  |  |  | 0.0605 | 0.0686
69 | Q59T |  | 0.0711 | 0.0554 | 0.0772 |  | 0.0555 | 0.0693
70 | Q197P |  | 0.091 | 0.0492 |  | 0.0892 | 0.0513 | 
71 | F6K | 0.0682 |  |  | 0.0881 |  | 0.0734 | 
72 | T70Y | 0.0464 | 0.0649 | 0.0787 | 0.0717 |  | 0.0708 | 0.0639
73 | G213Q | 0.0493 |  | 0.0677 |  |  |  | 
74 | G213N |  |  | 0.0661 |  |  |  | 0.0564
